From PubChem BioAssay AID588579 (National Center for Advancing Translational Sciences (NCATS), 2011)
Hit rate of the full screen: of about 400,000 compounds, about 2,200 (0.55%) were called active. Inconclusive results, whose numbers are uncertain, are shown with a selection of clear calls. Calls follow the shape of the dose curve; as a rule, active = well fitted inhibition curve with a large enough effect; inconclusive = small, poorly fitted or top-dose-only effect, or another doubt; inactive = no such curve, though single readings can be large or run the other way. A potency beside an inconclusive call is a rough fit, not a confirmed value. Non-standard residues stand in square brackets, D forms with d. Residues, ends and D or L forms follow the SMILES beside them.

The compounds below were run against DNA polymerase kappa (Homo sapiens) (UniProt Q9UBT6) (assay: qHTS for Inhibitors of Polymerase Kappa). Conditions: purified Pol kappa, fluorescent DNA synthesis assay, 10 min; series mostly up to 107 µM.
Sequence of UniProt Q9UBT6 (Q9UBT6 whole entry, looked up): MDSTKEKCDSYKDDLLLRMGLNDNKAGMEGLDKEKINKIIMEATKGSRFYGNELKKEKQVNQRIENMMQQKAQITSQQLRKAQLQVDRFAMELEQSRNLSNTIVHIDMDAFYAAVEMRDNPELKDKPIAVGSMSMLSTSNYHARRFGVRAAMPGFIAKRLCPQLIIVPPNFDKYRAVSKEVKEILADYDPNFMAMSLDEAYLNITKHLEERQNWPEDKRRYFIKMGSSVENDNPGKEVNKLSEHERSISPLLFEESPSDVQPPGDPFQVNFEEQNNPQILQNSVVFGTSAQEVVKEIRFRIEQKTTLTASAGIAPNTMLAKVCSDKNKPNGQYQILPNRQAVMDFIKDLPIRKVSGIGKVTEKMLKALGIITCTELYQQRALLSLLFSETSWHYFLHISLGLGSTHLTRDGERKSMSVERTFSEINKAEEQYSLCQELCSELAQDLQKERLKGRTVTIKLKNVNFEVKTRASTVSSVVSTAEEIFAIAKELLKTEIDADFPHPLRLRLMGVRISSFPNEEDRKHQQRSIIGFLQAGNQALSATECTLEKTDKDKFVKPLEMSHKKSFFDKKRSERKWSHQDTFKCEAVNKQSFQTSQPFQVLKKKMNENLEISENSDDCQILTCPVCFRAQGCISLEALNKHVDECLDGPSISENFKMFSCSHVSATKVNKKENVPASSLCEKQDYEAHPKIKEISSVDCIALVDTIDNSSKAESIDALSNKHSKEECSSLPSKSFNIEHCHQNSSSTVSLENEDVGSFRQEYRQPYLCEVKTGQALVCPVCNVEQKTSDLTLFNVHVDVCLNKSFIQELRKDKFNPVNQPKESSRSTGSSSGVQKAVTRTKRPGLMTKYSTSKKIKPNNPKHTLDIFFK
Procedure, shortened: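 Readout: fluorescence, taken kinetically at 0 and 10 min. Conditions: 10 nM Pol kappa, 15 min RT compound preincubation, 50 nM substrate final. Controls: enzyme-free buffer wells.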
Potency is read from the fitted curve at half-maximal effect; tags tell the direction and shape of the fitted curve.

| Structure (SMILES) | Potency |
| --- | --- |
| CC(C)Oc1ccc(C(=O)Nc2ccc3oc(-c4ccncc4)nc3c2)cc1 | inactive |
| COc1ccc2c(c1)c(=O)oc1cc(O)ccc12 | inactive |
| O=C(CSc1c2c(nc3ccc(Cl)cc13)CCCC2)N1CCN(C(=O)c2ccco2)CC1 | inconclusive: 89.1 µM [inhibitor, single point] |
| COc1ccc(NC(=O)Cn2cnc3c(nc4n3CCCCC4)c2=O)c(OC)c1 | inactive |
| O=C1CS/C(=N\N=C\c2ccco2)N1c1ccccc1 | inconclusive: 89.1 µM [inhibitor, single point] |
| COc1ccc(N2CCN(C(=O)Cn3cnc4sc(C)c(S(=O)(=O)N5CCC(C)CC5)c4c3=O)CC2)cc1 | inactive |
| O=C(CCC1CCCCC1)Nc1ccc(S(=O)(=O)Nc2nccs2)cc1 | inconclusive: 89.1 µM [inhibitor, single point] |
| COc1ccccc1/C=N/NC(=O)c1cccc(NC(=O)c2ccccc2Cl)c1 | inactive |
| CN(Cc1ccccc1)C(=O)CCNS(=O)(=O)c1ccc2c(c1)oc(=O)n2C | inconclusive: 89.1 µM [inhibitor, single point] |
| COc1ccc(CNC(=O)COC(=O)c2ccc(S(=O)(=O)NCc3ccco3)cc2)cc1 | inconclusive: 89.1 µM [inhibitor, single point] |
| COc1ccc2c(c1)c1c(c(=O)n(-c3cccc(Cl)c3)c(=O)n1C)n2C | inactive |
| CC(C)c1ccc(N2C(=O)/C(=C/N(C)C)SC2=S)cc1 | inconclusive: 8.91 µM [inhibitor, partial curve, poor fit] |
| Cc1noc(C)c1C(=O)N1CCC[C@@]2(CCN(Cc3cc(C(F)(F)F)cc(C(F)(F)F)c3)C2)C1 | inconclusive: 0.112 µM [inhibitor, full curve, poor fit] |
| COCC(=O)N1CCC[C@@]2(CCN(C(c3ccccc3)c3ccccc3)C2)C1 | inactive |
| O=C(CCS(=O)(=O)c1ccc(Br)cc1)NCc1ccc(F)cc1 | inconclusive: 100 µM [inhibitor, single point] |
| CC(=O)NNC(=O)CSc1nnc(-c2ccccc2)c(-c2ccccc2)n1 | inconclusive: 70.8 µM [inhibitor, single point] |
| Cc1ccc(C(=O)N/C(=C\c2ccc(C)o2)C(=O)O)cc1 | inconclusive: 100 µM [inhibitor, single point] |
| O=c1cc(-c2ccc(Br)cc2)[nH][nH]1 | inactive |
| CC1=NN(c2ccccc2)C(=O)/C1=C/c1c(O)n(-c2ccc(F)c(Cl)c2)[nH]c1=O | inconclusive: 89.1 µM [inhibitor, single point] |
| CC(C)C[C@H](NC(=O)[C@H](CC(C)C)NC(=O)[C@@H](Cc1c[nH]c2ccccc12)NC(=O)[C@H](Cc1ccccc1)NC(=O)[C@@H](Cc1c[nH]c2ccccc12)NC(=O)[C@H](CCC(N)=O)NC(=O)[C@H](CCC(N)=O)NC(=O)[C@@H]1CCCN1C(=O)[C@H](CCCCN)NC(=O)[C@@H]1CCCN1C(=O)[C@H](N)CCCN=C(N)N)C(N)=O (H-[dR]PKPQQ[dW]F[dW]LL-NH2) | inactive |
| COc1ccc(NC(=O)Cn2c(=O)c3ccccc3n3nncc23)c(OC)c1 | inactive |
| CCNC(=O)[C@H]1O[C@@H](n2cnc3c(N)nc(NCCc4ccc(CCC(=O)O)cc4)nc32)[C@H](O)[C@@H]1O | inconclusive: 33.6 µM [inhibitor, partial curve, poor fit] |
| O=C(N/N=C/C=C/c1ccco1)c1ccccc1Cl | active: 79.4 µM |

| Structure (SMILES) | Potency |
| --- | --- |
| O=C(c1cc(C2CC2)nn1-c1ccccc1)N1CCN(Cc2c(F)cccc2Cl)CC1 | inactive |
| COc1ccc(CCNC2=CC(=O)N(c3ccc(F)cc3)C2=O)cc1 | inconclusive: 20 µM [inhibitor, partial curve, poor fit] |
| CC(=O)NN1C(=O)/C(=C\c2ccccc2)SC1=S | inactive |
| Nc1c(O)cccc1C(=O)C[C@@H](N)C(=O)O | inconclusive: 8.44 µM [inhibitor, single point] |
| CCC(=O)N1c2ccccc2CC1C(=O)NCc1cccc(OC)c1OC (configuration not stated) | inactive |
| O=S(=O)(c1ccc(Cl)cc1)c1nc(-c2cccc(Br)c2)oc1NCc1ccccc1 | inactive |
| COc1ccc(C(=O)Nc2ccc(-c3nnc4n3CCCCC4)cc2)cc1 | inactive |
| O=C(/C=C/c1ccco1)Nc1ccc(F)cc1 | inactive |
| O=C(COc1ccccc1[N+](=O)[O-])Nc1ccc(CN2CCOCC2)cc1 | inconclusive: 79.4 µM [inhibitor, partial curve, poor fit] |
| C=C(CC)C(=O)c1ccc(OCC(=O)O)c(Cl)c1Cl | inactive |
| CC(=O)Nc1ccc(S(=O)(=O)N(C)c2ccc(OCC(=O)OCC(=O)Nc3ccc(OC(F)F)cc3)cc2)cc1 | inconclusive: 100 µM [inhibitor, single point] |
| O=P(c1ccccc1)(c1ccccc1)c1cc(S(=O)(=O)O)ccc1O | inconclusive: 89.1 µM [inhibitor, single point] |
| CN(CC(=O)Nc1ccc(Cl)cc1F)C1=NS(=O)(=O)c2ccccc21 | inactive |
| COC(=O)c1c(-c2ccco2)csc1NC(=O)C1CC=CCC1C(=O)O (configuration not stated) | inconclusive: 89.1 µM [inhibitor, single point] |
| CNC(=O)COC(=O)c1c2c(nc3ccccc13)CCC2 | inconclusive: 89.1 µM [inhibitor, single point] |
| Cc1nc2ccc(C(=O)O)cc2c2c1CC(C)S2 (configuration not stated) | active: 31.6 µM |
| CCOC(=O)C(=O)NCC(c1cccnc1)N1CCN(c2ccccc2)CC1 (configuration not stated) | inconclusive: 89.1 µM [inhibitor, single point] |
| CCOC(=O)c1ccc(NC(=O)CSc2ccc(-c3ccccn3)nn2)cc1 | inconclusive: 89.1 µM [inhibitor, partial curve, poor fit] |
| COc1ccc(C(=O)N/C(=C\c2cccc3ccccc23)C(=O)NCCc2c[nH]c3ccccc23)cc1OC | inconclusive: 79.4 µM [inhibitor, partial curve, poor fit] |
| CCOc1cc(N2CCOCC2)c(OCC)cc1NS(=O)(=O)c1cc(NC(C)=O)ccc1OC | inconclusive: 89.1 µM [inhibitor, single point] |
| O=C1NCCN1c1ncc([N+](=O)[O-])s1 | inactive |
| CCOc1ccc(CCNC(=O)c2nnn(CC(=O)Nc3ccc(C)cc3)c2N)cc1OCC | inconclusive: 100 µM [inhibitor, single point] |
| Cc1ccccc1N=Cc1cc2c(cc1O)OC(N)=C(C#N)C2c1ccccc1 (configuration not stated) | inconclusive: 89.1 µM [inhibitor, single point] |

| Structure (SMILES) | Potency |
| --- | --- |
| Cc1nc(NC(=O)CSc2nnc(C)n2CC2CCCO2)sc1C (configuration not stated) | inactive |
| CCN(CC)CCCNC(=O)c1cc2c(-c3cccc(OC)c3)nn(C)c2s1 | inactive |
| CCCn1c(=O)c2sccc2n2c(CCCC(=O)NC3CCN(Cc4ccccc4)CC3)nnc12 | inactive |
| O=C(/C=C/c1ccc(O)c(O)c1)c1ccc(O[C@@H]2O[C@H](CO)[C@@H](O)[C@H](O)[C@H]2O)c(O)c1O | active: 0.189 µM |
| CCCOC(=O)C1=C(C)N(C)C(=O)NC1c1cc2c(cc1[N+](=O)[O-])OCO2 (configuration not stated) | active: 79.4 µM |
| Cc1ccc(NC(=O)CN2C(=O)N/C(=C/c3cc(C)n(-c4ccc(C(=O)O)cc4)c3C)C2=O)cc1 | inconclusive: 89.1 µM [inhibitor, single point] |
| N=C1CCC(=N)c2c1c(O)c1ccccc1c2O | active: 22.4 µM |
| Cc1cc(C(=O)O)ccc1-c1ccc(/C=C2\NC(=O)N(Cc3ccccc3Cl)C2=O)o1 | active: 22.4 µM |
| Cn1cccc1-c1cc(C(=O)N/N=C/C=C/c2ccccc2)[nH]n1 | inconclusive: 89.1 µM [inhibitor, partial curve, poor fit] |
| O=C(N=Nc1c(O)n(Cc2ccccc2)c2ccccc12)c1cc2ccccc2cc1O | inconclusive: 89.1 µM [inhibitor, partial curve, poor fit] |
| CC(=O)C1=C(O)C(=O)N(c2ccc(Br)cc2)C1c1ccc(Br)cc1 (configuration not stated) | inconclusive: 89.1 µM [inhibitor, partial curve, poor fit] |
| CC[C@@H](C)CN1C(=O)N[C@@H](c2ccccc2)C(C(C)=O)=C1C | inconclusive: 56.2 µM [inhibitor, partial curve, poor fit] |
| Cc1ccc(-c2csc(NC(=S)NC(=O)/C=C/c3ccco3)n2)cc1 | inconclusive: 89.1 µM [inhibitor, partial curve, poor fit] |
| COc1ccc(NC(=O)c2ccco2)cc1NC(=O)c1c(OC)cccc1OC | inconclusive: 2.51 µM [inhibitor, full curve, poor fit] |
| CCN1/C(=C/C=C/c2oc3ccc4ccccc4c3[n+]2CC)Oc2ccc3ccccc3c21 | active: 44.7 µM |
| C=C(C)C(=O)Nc1cccc(C2=NOC3(C2)C[C@@H](C(N)=O)N(C(=O)/C=C/C=C/C)C3)c1 (some centres not stated) | active: 28.2 µM |
| CC(C)N1C(=O)S/C(=C/c2ccccc2OCc2ccc(C(=O)O)cc2)C1=O | inconclusive: 89.1 µM [inhibitor, single point] |
| COc1ccc(CNC(=O)Cc2c(C)c3cc4c(C)coc4c(C)c3oc2=O)cc1OC | inactive |
| COc1cccc(NC(=O)Cn2c(=O)n(CCCCC(=O)NCc3ccccc3Cl)c(=O)c3ccccc32)c1 | inactive |
| c1ccc2c(c1)CCCC2C1=NCCN1 (configuration not stated) | inconclusive: 3.55 µM [inhibitor, partial curve, poor fit] |
| N#CC1=C(SCC(=O)Nc2ccc(C(=O)O)cc2)NC(=O)CC1c1ccco1 (configuration not stated) | inconclusive: 89.1 µM [inhibitor, single point] |
